# Measurements reported in PMC4336329 (PLoS ONE, 2015).
# Hit rate of the full screen: of about 310,000 compounds, about 2,200 (0.71%) showed an effect of 50% or more. The effect is printed as a negative number. The list shows a part of the results.
# Biological target: human ether-à-go-go-related gene (hERG) potassium channel (human, UniProt Q12809)
# Experiment: primary screen, population patch clamp on CHO cells stably expressing hERG
# Sequence of human ether-à-go-go-related gene (hERG) potassium channel (Q12809 whole entry, looked up): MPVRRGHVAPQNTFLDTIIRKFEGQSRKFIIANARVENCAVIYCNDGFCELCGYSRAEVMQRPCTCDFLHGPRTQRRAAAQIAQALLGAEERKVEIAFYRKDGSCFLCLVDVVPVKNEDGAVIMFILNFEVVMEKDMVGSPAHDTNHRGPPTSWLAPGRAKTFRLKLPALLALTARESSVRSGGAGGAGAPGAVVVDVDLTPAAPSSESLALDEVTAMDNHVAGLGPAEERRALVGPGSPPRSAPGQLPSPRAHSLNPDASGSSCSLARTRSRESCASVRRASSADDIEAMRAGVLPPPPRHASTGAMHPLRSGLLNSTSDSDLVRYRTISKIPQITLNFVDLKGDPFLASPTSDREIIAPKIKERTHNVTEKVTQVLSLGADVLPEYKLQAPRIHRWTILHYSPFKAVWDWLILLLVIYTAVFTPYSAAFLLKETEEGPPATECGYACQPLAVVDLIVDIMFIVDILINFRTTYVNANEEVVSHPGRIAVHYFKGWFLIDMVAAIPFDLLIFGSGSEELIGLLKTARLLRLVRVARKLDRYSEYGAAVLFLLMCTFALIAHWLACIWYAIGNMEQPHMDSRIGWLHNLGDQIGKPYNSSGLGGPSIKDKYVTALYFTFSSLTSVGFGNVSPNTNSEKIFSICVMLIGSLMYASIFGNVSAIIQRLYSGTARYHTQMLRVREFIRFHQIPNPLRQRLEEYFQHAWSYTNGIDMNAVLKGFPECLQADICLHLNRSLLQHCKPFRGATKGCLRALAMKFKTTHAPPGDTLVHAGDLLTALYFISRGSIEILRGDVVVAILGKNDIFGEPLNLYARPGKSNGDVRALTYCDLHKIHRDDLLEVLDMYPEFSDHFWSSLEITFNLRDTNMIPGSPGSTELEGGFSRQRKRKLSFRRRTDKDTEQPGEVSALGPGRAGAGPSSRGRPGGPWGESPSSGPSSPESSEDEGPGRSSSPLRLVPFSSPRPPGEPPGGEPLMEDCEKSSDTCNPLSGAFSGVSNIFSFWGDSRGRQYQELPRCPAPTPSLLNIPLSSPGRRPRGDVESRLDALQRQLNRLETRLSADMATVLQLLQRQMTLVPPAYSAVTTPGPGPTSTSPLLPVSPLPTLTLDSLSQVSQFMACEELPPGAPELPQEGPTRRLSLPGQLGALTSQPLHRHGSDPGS
row,Compound,"hERG current change (%, negative = inhibition) at 1uM"
1,CS(=O)(=O)N(CC(=O)N1CCCC1)c1cccc(Cl)c1Cl,12%
2,CC(C)c1ccc(NC(=O)CN2C(=O)NC3(CCCC3)C2=O)cc1,14.3%
3,COc1ccc(OCCCC(=O)N2CCCc3ccccc32)cc1,8.67%
4,O=C(O)c1ccccc1Nc1cc(Cl)c2nonc2c1[N+](=O)[O-],17.5%
5,COc1ccc(-c2noc(CN(C)Cc3ccc(C)o3)n2)cc1,-6.43%
6,COc1ccc2[nH]c3c(NCCN(C(C)C)C(C)C)ncnc3c2c1,-71.9%
7,Nc1cc(S(=O)(=O)O)cc([N+](=O)[O-])c1O,-6.35%
8,CN(C)c1nc2ncn(Cc3ccccc3)c2c(=O)[nH]1,6.21%
9,CCCCN(C(=O)Nc1ccc(OCC)cc1)C1CCN(C(C)=O)CC1,-9.33%
10,Cc1ccsc1C1CC(=O)Nc2ccccc2S1 (stereo not shown),12.5%
11,Cc1ccccc1/C=C1\C(=O)Nc2ccc(F)cc21,10.4%
12,COc1cccc(NC(=O)COC(=O)Cc2ccccc2[N+](=O)[O-])c1,2.98%
13,COc1ccc2c(=O)c3c(=O)n(Cc4ccco4)c(-c4ccco4)nc3oc2c1,-12.8%
14,CCN1CCN(C(=O)/C=C/c2ccc3c(c2)OCO3)CC1,11.6%
15,CCN(CC(=O)Nc1c(F)cccc1F)C(=O)CSCC(=O)Nc1cc(C)on1,9.93%
16,NCC(=O)NNC(=O)OCC1c2ccccc2-c2ccccc21,6.61%
17,Oc1ccc2ccccc2c1/C=N/c1nc2c(s1)CCCC2,8.4%
18,Cc1cc(C)n(C(=O)c2ccc(NC(=O)CC(C)C)cc2)n1,2.45%
19,COC(=O)C(C)n1nnc2sc(-c3ccccc3)cc2c1=O (stereo not shown),-1.39%
20,COc1ccccc1C(=O)Nc1ccccc1N1CCN(C(=O)c2ccc(Cl)cc2)CC1,-85.2%
21,Cc1ccc(S(=O)(=O)c2nc(NCCCn3ccnc3)sc2Cl)cc1,-19.3%
22,COc1ccc(CCNC(=O)CN(c2ccccc2)S(C)(=O)=O)cc1,20.3%

row,Compound,"hERG current change (%, negative = inhibition) at 1uM"
1,O=c1c2c3c(sc2ncn1/N=C/c1ccc([N+](=O)[O-])o1)CCCC3,15.1%
2,CNC(=O)c1ccc(Nc2nnc(-c3ccc(C)c(S(=O)(=O)NCC4CCCO4)c3)c3ccccc23)cc1 (stereo not shown),9.16%
3,COc1ccc(-c2csc(Cc3nnc4n3CCCCC4)n2)cc1,-19.9%
4,Cc1sc2nc(CSC(C)C(=O)N(C)CC(=O)Nc3ccccc3C(F)(F)F)[nH]c(=O)c2c1C (stereo not shown),16.3%
5,O=C(Nc1cc(S(=O)(=O)N2CCOCC2)ccc1N1CCCCC1)c1cc(-c2ccccn2)nc2ccccc12,10.1%
6,COc1cc(-c2nnc(SCc3cc(=O)oc4cc(C)ccc34)o2)cc(OC)c1OC,5.4%
7,O=c1[nH]c(=O)c2nc(-c3ccc(Cl)cc3)cnc2[nH]1,9.06%
8,CN(C)c1ccc(P(=O)(OCc2ccccc2)C(O)c2ccc(Cl)cc2)cc1 (stereo not shown),5.5%
9,O=[N+]([O-])c1ccc(/C=C2\CCC(C3=CCCC3)=C2N2CCOCC2)cc1,2.49%
10,COC(=O)[C@@H](C)NC(=O)c1ccc2oc(CCc3ccccc3)nc2c1,4.24%
11,Cc1ccccc1NC(=O)NC1(C(=O)NCC2CCCO2)CCCCC1 (stereo not shown),13.7%
12,COc1ccc(-n2cnnc2SCC(=O)c2ccc(S(=O)(=O)N3CCOCC3)cc2)cc1,10.7%
13,CCCCNc1ccc(C(CC(N)=O)NC(=O)Cc2cccc3ccccc23)cc1[N+](=O)[O-] (stereo not shown),1.16%
14,CC(C)(O)C#Cc1ccc(CN2CCN(CCc3ccccc3)C(CCO)C2)s1 (stereo not shown),-1.09%
15,Cc1nnc(SCC(=O)Nc2cccc(Cl)c2)n1CC1CCCO1 (stereo not shown),17.8%
16,CCCC(=O)NCCc1cc2ccc(OC)cc2[nH]c1=O,11%
17,Cc1cc(NC(=O)COC(=O)c2cc([N+](=O)[O-])ccc2N2CCOCC2)ccc1Br,10.3%
18,COc1cc(OC)cc(C(=O)N2CCCC(Nc3ccc(F)cc3)C2)c1 (stereo not shown),9.19%
19,COc1cc(C(=O)NCCC(C)C)c([N+](=O)[O-])cc1OC,2.08%
20,CCOC(=O)c1ccc(N2CCN(c3ccc(F)cc3)CC2)c(NC(=O)Nc2cccc(OC)c2)c1,11.3%
21,O=C(Nc1cccc(F)c1)C1C2C=CC3(CN(CCCN4CCOCC4)C(=O)C13)O2 (stereo not shown),0.618%
22,Cc1ccc(-c2n[nH]c(=O)c3ccccc23)c(C)c1,19.5%

row,Compound,"hERG current change (%, negative = inhibition) at 1uM"
1,Cc1cc(C)c(O)c(-c2cc(C(=O)NCCc3ccc(S(N)(=O)=O)cc3)[nH]n2)c1,17.1%
2,Cc1cccc(C(=O)NNC(=O)c2ccc(Cl)cc2)c1O,4.67%
3,O=[N+]([O-])c1ccc(Oc2ccc(S(=O)(=O)Nc3ccccc3)cc2)cc1,10.6%
4,CSc1cccc(NC(=S)N2CCC(N(C)C3CCCC3)CC2)c1,-1.06%
5,O=C1CCN(CCCc2ccccc2)CCN1[C@H](CO)c1ccccc1,1.59%
6,CCCCn1c(N)c(N(CC(C)C)C(=O)c2ccc(Br)s2)c(=O)[nH]c1=O,-14.1%
7,Cc1cccc2c(N=O)c(O)n(CCc3ccccc3)c12,14.9%
8,CCCCc1nc2cc(C(=O)NCc3nccn3CC)ccc2o1,11.7%
9,Cc1cc(NC(=O)C(C)Oc2ccc(C(C)(C)C)cc2)no1 (stereo not shown),2.41%
10,COc1cc(C(=O)NC(=S)Nc2ccc([N+](=O)[O-])cc2C)cc(OC)c1OC,10.2%
11,CCOc1ccc(CCNC(=O)Cc2ccc(S(=O)(=O)N3CCOCC3)s2)cc1OCC,-14.7%
12,CCC(=O)Nc1c(-c2ccc3ccccc3c2)nc2ccccn12,8.26%
13,COc1ccc(C2=Nn3c([n+](C)c4ccccc43)SC2)cc1.[Br-],-13.2%
14,COc1cccc(C(C)NC(=S)NCc2ccc(F)cc2)c1 (stereo not shown),8.65%
15,CNC(=O)CSc1nnc(-c2cccnc2)n1CCc1ccccc1,17.6%
16,Cc1cc(C)c(S(=O)(=O)NCC(=O)O)cc1C,12.5%
17,COC(=O)C1=C(c2ccc(C(C)=O)cc2)C[C@@H]2CC[C@H]1N2C(=O)NC1CC1,12.2%
18,COc1ccc(NC(=O)CN(C)C(=O)CCCc2c[nH]c3ccccc23)cc1,16.5%
19,Cc1ccc(C(=O)Nc2ccc(C(=O)O)cc2)cc1S(=O)(=O)NCc1ccccc1,4.39%
20,Cn1c(=O)c2c(nc(CN3CCN(Cc4ccccc4)CC3)n2Cc2cccc(Cl)c2)n(C)c1=O,-3.67%
21,COc1ccc(N(CC(=O)NCc2cccnc2)S(=O)(=O)c2ccc(C)c([N+](=O)[O-])c2)cc1,1.15%
22,CC(C)CC1Nc2ncnc(N3CCCCC3)c2N(Cc2ccccc2)C1=O.O=C(O)C(F)(F)F (stereo not shown),-3.79%

row,Compound,"hERG current change (%, negative = inhibition) at 1uM"
1,CCOC(=O)CCc1c(C)n(CC)c2cc(-c3ccccc3OC)nn2c1=O,7.08%
2,COc1ccc(OC)c(NC(=O)C2CC2c2ccccc2)c1 (stereo not shown),12.2%
3,CCOC(=O)C1(CC2CC2)CCN(Cc2cn[nH]c2-c2ccccc2)CC1,-65.5%
4,CCCn1c(N)c(N(CCOC)C(=O)c2cc3ccccc3cc2OC)c(=O)[nH]c1=O,13.1%
5,N#C/C(=N\Nc1ccc(Cl)cc1)C(=O)c1ccsc1,20.7%
6,COc1ccc(/C(O)=C2/C(=O)C(=O)N(c3ccccn3)C2c2ccc(OC)c(OC)c2)cc1 (stereo not shown),5.35%
7,COc1ccc(NC(=O)CSCC(=O)Nc2ccc(S(=O)(=O)N3CCOCC3)cc2)cc1,4.07%
8,Cc1ccc2c(c1)N(C(=O)CCC(=O)NCc1cccnc1)CC(C)O2 (stereo not shown),-11.4%
9,COC(=O)C1=C(C)N(CCc2ccccc2)C(=O)C1,9.77%
10,CC(C)Cn1c(N)c(C(=O)COC(=O)c2ccc3ccccc3n2)c(=O)n(C)c1=O,-20.5%
11,COc1ccc(Oc2c(C)oc3cc(OC(=O)N4CCOCC4)ccc3c2=O)cc1,10%
12,Cc1cc(C)n2nc(SCC(=O)N(CC(C)C)c3c(N)n(CC(C)C)c(=O)[nH]c3=O)nc2n1,9.3%
13,Fc1ccccc1NC(=S)Nc1cccc2cnccc12,23.6%
14,Cn1ncc(Br)c1C(=O)N1CCN(C(=O)c2ccco2)CC1,2.31%
15,CCc1cc2c(cc3c(=O)n(CC(=O)N4CCN(C)CC4)ncn32)s1,1.59%
16,COc1ccccc1C(=O)N1CCN(CCc2ccccc2)CC1,-31.5%
17,COc1ccc(-c2[nH]c(-c3cccc(OC)c3)nc2SCC(=O)NC2CCCC2)cc1,1.27%
18,CC(C)=CC(=O)N1CC[C@@H](N2CCN(c3ccccc3F)CC2)[C@H](O)C1,9.86%
19,Clc1ccccc1-c1nnc2sc(-c3ccncc3)nn12,2.73%
